Some of the results follow. Repeats are few or missing, and single values can be far off.
The molecules below were run on SkMel5 (assay: cell count relative to DMSO control; melanoma cells; higher = more viable cells). Settings: library dose: standard library concentration; 72 h.
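Also: cells treated in 1,536-well plates, then fixed and DAPI-stained, with nuclei counted from automated high-throughput microscope images.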

Row | Compound | cell count
1 | C#Cc1cccc(Nc2ncnc3cc(OCCOC)c(OCCOC)cc23)c1 [erlotinib] + O=C(Nc1cccc(Cl)c1)Nc1ncc(CCNc2ncnc3ccsc23)s1 [SNS314] (first compound 4 µM, partner dose 0.004 µM) | 52.9%
2 | Cn1c(Nc2ccc(C(F)(F)F)cc2)nc2cc(Oc3ccnc(-c4ncc(C(F)(F)F)[nH]4)c3)ccc21 + COc1ccc2c(c1)CCC1C2CCC2(C)C(NCCCCCCN3C(=O)C=CC3=O)CCC12 [U73122] (first compound 0.4 µM, partner dose 2 µM) | 36.4%
3 | Nc1cccc2c1CN(C1CCC(=O)NC1=O)C2=O (stereo unspecified) [lenalidomide] + O=S(=O)(c1ccccc1)N(CC(F)(F)F)c1ccc(C(O)(C(F)(F)F)C(F)(F)F)cc1 [T0901317] (first compound 5 µM, partner dose 7 µM) | 87.6%
4 | OCc1c[nH]c2ccccc12 [Indole-3-carbinol] + O=C(CCCCCCC(=O)Nc1ccccc1)NO [vorinostat] (first compound 4 µM, partner dose 0.4 µM) | 90.6%
5 | Nc1cccc2c1CN(C1CCC(=O)NC1=O)C2=O (stereo unspecified) [lenalidomide] + COc1ccc(COc2ccc(Cc3cnc(N)nc3N)cc2OC)cc1 [GW2580] (first compound 5 µM, partner dose 5 µM) | 61.6%
6 | C#Cc1cccc(Nc2ncnc3cc(OCCOC)c(OCCOC)cc23)c1 [erlotinib] + COc1cc2ncnc(Nc3ccc(Oc4ccccc4)cc3)c2cc1OC [SrcI1] (first compound 4 µM, partner dose 10 µM) | 60.5%
